Data taken from PubChem BioAssay AID2675 (National Center for Advancing Translational Sciences (NCATS), 2010).
Among all 280,000 compounds or so, about 100 (0.036%) were called active. Inconclusive results, whose numbers are uncertain, are shown with a selection of clear calls. Calls come from the whole dose curve; as a rule, active = well fitted inhibition curve with a large enough effect in the signal ratio, with a control signal flat (not every such curve was filed as active); inconclusive = small, poorly fitted or top-dose-only effect, or effect the other way, or a change in a side signal; inactive = no such curve, though single readings can be large or run the other way; the % refers to the signal ratio. Potencies beside an inconclusive call are fits to weak or partial responses and may not hold up. “Side channel” marks fits to a control or component signal instead of the main read-out.

molecular target: Muscleblind-like protein 1 (Homo sapiens) (UniProt Q9NR56); experiment: qHTS Assay for Inhibitors of MBNL1-poly(CUG) RNA binding; details: TR-FRET MBNL1-His/biotin-(CUG)12 binding, 665/545 ratio; activity change, negative = inhibition: at 57.5 µM (top of the series)
Outline: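 Compounds (final 92 nM to 58 uM) are added to His-tagged MBNL1 and biotin-(CUG)12, then terbium anti-His antibody and streptavidin-XL665 (5 nM final). After 60 min at room temperature, the 665/545 nm ratio is read.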
% is set by controls: 0 for no effect and ±100 for the full control effect; potency is the fitted concentration of half-maximal effect; tags give direction and shape of the fitted curve or compound fluorescence and quenching.

Chain of UniProt Q9NR56 (Q9NR56 whole entry, looked up): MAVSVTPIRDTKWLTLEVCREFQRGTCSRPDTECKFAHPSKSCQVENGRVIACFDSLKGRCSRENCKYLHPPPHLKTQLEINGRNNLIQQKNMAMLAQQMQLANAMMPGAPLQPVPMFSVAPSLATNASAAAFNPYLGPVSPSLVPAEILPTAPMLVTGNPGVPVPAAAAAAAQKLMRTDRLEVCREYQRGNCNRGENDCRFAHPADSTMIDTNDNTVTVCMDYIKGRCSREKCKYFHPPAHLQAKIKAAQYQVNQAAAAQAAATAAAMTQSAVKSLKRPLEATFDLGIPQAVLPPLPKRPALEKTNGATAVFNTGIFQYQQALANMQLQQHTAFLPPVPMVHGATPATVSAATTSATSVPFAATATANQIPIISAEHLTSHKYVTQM

Q: How did the Potency turn out when `Cc1ccc(C(=O)Nc2ccc3nccnc3c2)cc1` was run?
A: The Potency was inconclusive: 15.8 µM [quencher, side channel, partial curve].

Q: Which Potency does the source give for `N#Cc1c(N)n(-c2ccc(C(=O)O)cc2)c2nc3ccccc3nc12` here?
A: Its Potency is inconclusive: 11.2 µM [quencher, side channel, partial curve].

Q: For `O=C(CCC(=O)Nc1cccc([N+](=O)[O-])c1)N/N=C/c1cccs1`, which Potency is on record?
A: The Potency was inconclusive: 10 µM [quencher, side channel, partial curve].

Q: With `CCCOc1ccc(/C=C2\SC(N)=NC2=O)cc1OC` as the molecule, how does the Potency read?
A: The Potency was inconclusive: 12.6 µM [quencher, side channel, partial curve].

Q: `Cc1nc(C)n(CC(O)COc2ccc3cc(Br)ccc3c2)n1` (configuration not stated) was tested. Which “activity change, negative = inhibition” value did it give?
A: The value was inactive: 1.06%.

Q: For `O=c1oc2ccccc2c2c1C(c1ccc(Cl)cc1)Nc1ccc3ccccc3c1-2` (configuration not stated), which “activity change, negative = inhibition” value is on record?
A: Its value is inactive: -4.96%.

Q: With `COC(=O)/C(C#N)=C/c1c(-c2ccccc2)nc2n1CCS2` as the molecule, how does the Potency read?
A: The Potency was inconclusive: 14.1 µM [quencher, partial curve].

Q: For `Cc1cccn2c(=O)c3cc(C(=O)NCc4ccco4)c(=N)n(C4CCCCC4)c3nc12`, which Potency is on record?
A: The Potency was inconclusive: 14.1 µM [quencher, side channel, partial curve].

Q: `CSc1nnc(C)c(=O)n1COC(=O)c1cc(Cl)ccc1[N+](=O)[O-]` was tested. Which Potency did it give?
A: Its Potency is inconclusive: 22.4 µM [quencher, side channel, single point].

Q: With `Cn1c(=O)c2cc(S(=O)(=O)Nc3cccc(F)c3)ccc2n(C)c1=O` as the molecule, how does the “activity change, negative = inhibition” value read?
A: Its value is inactive: -7.87%.

Q: For `Cc1c(CN2CCCCC2)c(O)n(CCO)c(=O)c1C#N`, which Potency is on record?
A: Its Potency is inconclusive: 22.4 µM [quencher, side channel, single point].

Q: For `Cc1ccc(NC(=O)c2c([N+](=O)[O-])cnn2C)cc1C`, which Potency is on record?
A: Its Potency is inconclusive: 28.2 µM [quencher, side channel, single point].

Q: How did the Potency turn out when `Cc1ccc2nc(C)c(C)nc2c1N` was run?
A: The Potency was inconclusive: 1 µM [quencher, side channel, full curve, poor fit].

Q: Which Potency does the source give for `O=C(NC(=S)N1CCN(c2ccc(Cl)cc2[N+](=O)[O-])CC1)c1ccco1` here?
A: The Potency was inconclusive: 0.891 µM [quencher, side channel, full curve, poor fit].

Q: For `Cc1onc(C(=O)Nc2cccnc2Cl)c1[N+](=O)[O-]`, which Potency is on record?
A: The Potency was inconclusive: 17.8 µM [quencher, side channel, partial curve].

Q: With `O=C(CNC(=O)c1cccs1)N=Nc1c(O)[nH]c2ccc([N+](=O)[O-])cc12` as the molecule, how does the Potency read?
A: The Potency was inconclusive: 14.1 µM [quencher, side channel, partial curve].

Q: `COc1cccc(NC(=O)c2cc3ccccc3o/c2=N\O)c1` was tested. Which Potency did it give?
A: Its Potency is inconclusive: 15.8 µM [quencher, side channel, partial curve].
